# Measured values from PubChem BioAssay AID485313 (National Center for Advancing Translational Sciences (NCATS), 2010).
# The campaign covered roughly 320,000 compounds. About 7,600 (2.4%) were called active. Inconclusive results, whose numbers are uncertain, are shown with a selection of clear calls. Calls follow the shape of the dose curve; as a rule, active = well fitted activation curve with a large enough effect; inconclusive = small, poorly fitted or top-dose-only effect; inactive = no such curve, though single readings can be large or run the other way. Potencies of inconclusive entries are left out as doubtful fits.
# Assay: qHTS Assay for NPC1 Promoter Activators; also: nearly all actives have a fitted effect of over 60% in size;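 as to activation: reporter is driven by a mutant NPC1 promoter; % of control where 0% means no effect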
# Settings: Huh7 NPC1 promoter luciferase reporter, 24 h; series mostly up to 9.22 µM; activation: at the top concentration
# How it was run: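 NPC1 promoter–luciferase Huh7 cells; 24 h compound; luminescence.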
# Potency is read from the fitted curve at half-maximal effect; tags tell the direction and shape of the fitted curve.
Structure (SMILES),Potency,activation
CCOC(=O)CC(NC(=O)c1cc2cccc(OC)c2oc1=O)c1ccc(OC)cc1 (centres undefined),"inconclusive [activator, single point]",–
O=C(c1cc(-c2ccc(Br)cc2)n[nH]1)N1CCN(C(=O)c2ccccc2Br)CC1,–,inactive: 1.85%
Cc1cc(C)cc(NC(=O)Nc2ccc(-n3ccc(C(F)(F)F)n3)cc2)c1,"inconclusive [activator, partial curve]",–
O=C(CSc1nnc(NC(=O)c2ccc(F)cc2)s1)NC1CCCC1,"inconclusive [activator, single point]",–
CC1CCc2c(C(=O)NCC3CCCO3)csc2C1 (centres undefined),"inconclusive [activator, partial curve]",–
O=C1c2ccccc2S(=O)(=O)N1CC1CC(c2ccccc2)=NO1 (centres undefined),active: 3.16 µM,–
COc1ccc(/C=C\c2nc(=O)c3ccccc3o2)cc1,"inconclusive [activator, single point]",–
Cc1ccc(C2=N/C(=C\N(C)C)C(=O)O2)cc1,"inconclusive [activator, partial curve]",–
Cc1nc(C#N)c(N/N=C/c2cccc(Cl)c2)o1,"inconclusive [activator, single point]",–
O=C(O)c1ccc(N/N=C/c2ccc(-c3cc(Cl)ccc3Cl)o2)cc1,"inconclusive [activator, full curve]",–
O=C(NC1CCCC1)c1cc2c(ccc3ccccc32)o1,active: 1.41 µM,–
O=c1[nH]c(=O)c2nc(-c3ccc(Cl)cc3)cnc2[nH]1,–,inactive: -2.36%
O=C(Nc1ncc([N+](=O)[O-])s1)c1ccco1,active: 1.58 µM,–
COc1ccc(OCC(=O)Nc2cccc(-c3nc4ccccc4[nH]3)c2)cc1,"inconclusive [activator, single point]",–
COc1ccc(OCCC(=O)N2CCOCC2)cc1,–,inactive: 4.58%
O=C(CSc1nnnn1-c1ccccc1)c1ccco1,"inconclusive [activator, single point]",–
COC(=O)c1ccc(COC(=O)c2ccccn2)cc1,–,inactive: 1.22%
C=CCn1c(COc2ccccc2OC)nc2ccccc21,–,inactive: 11.6%
CC(=O)c1cc(C#N)c(SCC(=O)Nc2nccs2)nc1C,"inconclusive [activator, partial curve]",–
Clc1cccc(-c2cc3nc4c(c(NCc5ccco5)n3n2)CCCC4)c1,active: 3.55 µM,–
CSc1ccc(C(C(C(=O)c2cccs2)N2CCOCC2)N2CCOCC2)cc1 (centres undefined),–,inactive: 2.46%
CCOC(=O)CC(=O)CSc1ncnc2c1cnn2-c1ccccc1,"inconclusive [activator, partial curve]",–
COc1ccc(Cl)cc1NC(=O)Nc1cc(C)on1,active: 1.41 µM,–
CCN(CC)c1ccc(/C=N/NC(=O)c2ccoc2C)c(O)c1,"inconclusive [activator, partial curve]",–
Cc1ccccc1-c1noc(-c2ccc(O)cc2)n1,"inconclusive [activator, single point]",–
Cn1c(CNc2ccccc2)nc2ccccc21,active: 3.98 µM,–
CSc1nc2ccc(NC(=O)c3ccc(=O)n(C)n3)cc2s1,–,inactive: 28.3%

Structure (SMILES),Potency,activation
COc1ccc(C(=O)Nc2ccc3ccccc3n2)c(OC)c1OC,"inconclusive [activator, partial curve, poor fit]",–
CC(C)c1ccc(NC(=O)c2n[nH]c(=O)c3ccccc23)cc1,"inconclusive [activator, partial curve]",–
CC(C)Cc1ccc(-c2cc(=O)[nH][nH]2)cc1,–,inactive: 0.159%
CCOc1ccc2nc(N3CCC(C(=O)N4CCN(c5ncccn5)CC4)CC3)sc2c1,"inconclusive [activator, partial curve]",–
Nc1c(C(=O)Nc2ccc3c(c2)OCCO3)nnn1Cc1cccc(Br)c1,"inconclusive [activator, partial curve]",–
COc1cccc(/C=C2\SC(N3CCCC(C)C3)=NC2=O)c1OC (centres undefined),"inconclusive [activator, single point]",–
O=C(COc1ccccc1)Nc1ccc2c(c1)nc1n2CCOC1,"inconclusive [activator, single point]",–
Nc1c(C(=O)NCc2ccc3c(c2)OCO3)nnn1Cc1ccc(Br)cc1,–,inactive: -0.839%
Cn1c(=O)c(C(=O)NCc2ccccc2)c(O)c2ccccc21,"inconclusive [activator, single point]",–
CC(C)CN(C(=O)c1ccco1)C1CCS(=O)(=O)C1 (centres undefined),–,inactive: -3.67%
CCN1CCN(c2c(C=O)c(Cl)nc3ccc(OC)cc23)CC1,–,inactive: 1.75%
O=C(/C=C/c1cccc(O)c1)c1ccc(N2CCOCC2)cc1,"inconclusive [activator, single point]",–
O=c1c(=NNc2ccccc2Cl)c(=O)c2ccccc12,active: 3.16 µM,–
O=C(NCCc1cccc(Cl)c1)c1cccnc1,"inconclusive [activator, single point]",–
Cc1cccc(NC(=S)NC(=O)c2ccco2)c1C,"inconclusive [activator, partial curve]",–
O=C(Nc1ccn(Cc2ccccc2)n1)c1n[nH]c([N+](=O)[O-])c1Cl,"inconclusive [activator, full curve]",–
C=CCOc1c(Br)cc(/C=N/Nc2ccc(C(=O)O)cc2)cc1OCC,active: 2.82 µM,–
O=C(CCN1C(=O)C2CC=CCC2C1=O)Nc1nc(-c2ccc(F)c(F)c2)cs1 (centres undefined),–,inactive: 17.1%
CC(C)(C)c1ccc(-c2conc2N)cc1,"inconclusive [activator, partial curve]",–
CCOC(=O)N1CCN(C(=O)c2ccc3c(c2)sc2nc(-c4ccccc4)cn23)CC1,active: 3.55 µM,–
CSc1ccccc1NC(=O)c1ccc(N2CCCC2=O)cc1,"inconclusive [activator, partial curve]",–
CCc1c(C)nc2cc(-c3ccc(Cl)cc3)[nH]n2c1=O,active: 3.98 µM,–
COC(=O)c1cccc(-c2noc(-c3ccccc3F)n2)c1,"inconclusive [activator, full curve, poor fit]",–
COc1ccc(C(=O)CCC(=O)N2CCN(c3cc(C)ccc3C)CC2)cc1,–,inactive: -3.97%
COc1ccc(CC(=O)Nc2oc(-c3ccccc3)c(-c3ccccc3)c2C#N)cc1OC,–,inactive: -2.23%
Nn1c(-c2ccccn2)nnc1-c1ccccn1,"inconclusive [activator, partial curve]",–
Fc1cccc(/C=N/Nc2ccc(Cl)nn2)c1,"inconclusive [activator, single point]",–

Structure (SMILES),Potency,activation
COc1ccc(-c2nc(-c3cccnc3)no2)cc1OC,"inconclusive [activator, single point]",–
CC(C)(C)c1cc(NC(=O)Nc2ccccc2)no1,active: 1.41 µM,–
O=C(COc1ccc2c(c1)CCC2)N1CCc2ccccc21,active: 2.82 µM,–
CCCNC(=O)c1c(Cl)cnn1-c1ccc(C)cc1,active: 2.51 µM,–
Cc1ccc(Sc2cnc3ccccc3n2)cc1,"inconclusive [activator, single point]",–
CC(=O)Nc1cccc(C(=O)/C=C/c2ccc(/C=C/C(=O)c3cccc(NC(C)=O)c3)cc2)c1,–,inactive: -31%
CC(=O)Oc1ccc(-c2cccc(C(=O)N3CCCCC3)c2)cc1,–,inactive: 19%
COc1ccc(/C=C/C(=O)O/N=C(\N)c2ccccc2)cc1OC,"inconclusive [activator, partial curve]",–
COc1cn(-c2ccccc2)nc1C(=O)Nc1ccc(C)cc1,"inconclusive [activator, partial curve]",–
CC1Cc2ccccc2N1C(=O)Cn1nnc(-c2ccccc2NC(=O)C2CCC2)n1 (centres undefined),–,inactive: -1.47%
CCc1ccc2nc(N(CCCN(C)C)C(=O)c3ccc(C(=O)c4ccccc4)cc3)sc2c1,"inconclusive [activator, partial curve]",–
CCc1cc2c(=O)n(Cc3ccccc3)c(SC3CCOC3=O)nc2s1 (centres undefined),–,inactive: -2.19%
COc1ccc(C(=O)Nc2ccc(NC(=O)c3ccco3)c(Cl)c2)cc1OC,–,inactive: -3.09%
O=S(=O)(Cc1cc(-c2ccccc2)no1)c1ccccc1,"inconclusive [activator, single point]",–
COc1ccccc1/C=C/c1nc(C#N)c(N(C)C)o1,"inconclusive [activator, single point]",–
CC(=O)Nc1ccc(S(=O)(=O)NNC(=O)c2ccc(C)cc2)cc1,–,inactive: 0.307%
NC(=O)C1CCN(C(=O)c2cc3c(s2)CCCCC3)CC1,"inconclusive [activator, partial curve]",–
C=CCNc1oc(-c2ccc(OC)cc2)nc1C#N,"inconclusive [activator, single point]",–
Cc1cccc(N=Nc2ccc(O)c3ncccc23)c1,–,inactive: 13.2%
Cc1ccc(SCCC(=O)N2CCC(C)CC2)cc1,active: 4.47 µM,–
Cc1nn(C)c(C)c1CNC(=O)Nc1ccc2c(c1)OCO2,"inconclusive [activator, single point]",–
Cc1nc2nc(-c3ccc(Cl)cc3)cn2nc1C,"inconclusive [activator, partial curve]",–
CCOC(=O)Nc1ccc(NC(=O)c2ccccc2F)cc1,"inconclusive [activator, partial curve]",–
Cc1ccc(-c2csc(-c3ccncc3)n2)cc1,"inconclusive [activator, single point]",–
O=C(NCCc1cccc(Cl)c1)c1ccc(OC2CCN(Cc3ccccn3)CC2)cc1,"inconclusive [activator, partial curve]",–
